Test results from the antibiotic and cytotoxicity screens of Wong et al. (2023).
This is one part of the list.

What follows are compounds tested on S. aureus RN4220 (assay: growth inhibition call (relative growth <= 0.2)). Conditions: 50 µM.

Growth inhibition call, inactive:
COc1cc(Nc2ncc(F)c(Nc3ccc4c(n3)N(COP(=O)(O)O)C(=O)C(C)(C)O4)n2)cc(OC)c1OC, C[C@@H]1CN([C@H](C)CO)C(=O)Cc2cc(NS(=O)(=O)c3cn(C)cn3)ccc2O[C@H]1CN(C)C(=O)Nc1ccc(F)cc1, CC(C)N1CC[C@@H](CN(C)Cc2ccc(Cl)cc2)Oc2c(NC(=O)c3ccncc3)cccc2C1=O, COc1cccc(S(=O)(=O)N(C)C[C@@H]2Oc3ncc(C#CCC(C)C)cc3C(=O)N([C@H](C)CO)C[C@@H]2C)c1, C[C@H]1CN([C@@H](C)CO)C(=O)c2cc(Br)cnc2O[C@@H]1CN(C)Cc1cccc(C(=O)O)c1, C[C@@H]1CN([C@H](C)CO)C(=O)c2cc(NC(=O)Cn3cnnn3)ccc2O[C@@H]1CN(C)Cc1ccccc1, Cc1noc(C)c1NC(N)=O, CC(C)NC(=O)Nc1cccc2c1O[C@@H](CN(C)Cc1ccc(C(=O)O)cc1)[C@H](C)CN([C@H](C)CO)C2=O, O=C(C[C@H]1CC[C@H]2[C@@H](COC[C@@H](O)CN2S(=O)(=O)c2ccccc2Cl)O1)NCCc1ccncc1, Cc1noc(C)c1NC(=O)Nc1ccc2c(c1)C(=O)N([C@@H](C)CO)C[C@@H](C)[C@@H](CN(C)S(=O)(=O)c1ccccc1)OCCCC[C@H](C)O2, C[C@@H]1CCCCO[C@H](CN(C)S(=O)(=O)c2cn(C)cn2)[C@@H](C)CN([C@H](C)CO)C(=O)c2cc(NS(=O)(=O)c3ccccc3)ccc2O1
